Measurements taken from PubChem BioAssay AID1508624 (National Center for Advancing Translational Sciences (NCATS), 2021).
The campaign covered roughly 48,000 compounds. About 120 (0.25%) were called active. About 4% were inconclusive and are not listed. Calls come from the whole dose curve; as a rule, active = well fitted activation curve with a large enough effect; inconclusive = small, poorly fitted or top-dose-only effect, or another doubt; inactive = no such curve, though single readings can be large or run the other way. Some of the results follow.

test: Primary qHTS for Identification of Small Molecule Activators of Huntingtin-Antisense Promoter Activity; details: HEK293 HTT-AS promoter firefly luciferase reporter, 24 h; series mostly up to 57.5 µM; activity change, positive = activation: at the top concentration; note: nearly all actives have a fitted effect of over 55% in size
How it was run: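 Quantitative HTS used concentration series of up to 57.5 uM final on HEK293 luciferase reporter cells, 24 h at 37 degrees C. Readout was Dual-Glo firefly luminescence.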

Activity change, positive = activation, inactive:
CC1CCN(S(=O)(=O)c2ccc3nc(NCc4ccc(N(C)C)cc4)ccc3c2)CC1 -39.4%
CCc1cccc(NC(=O)Cn2c(=O)n(CCCCCC(=O)NCc3ccc(F)cc3)c(=O)c3sccc32)c1 -19.9%
C=CCc1cc(OC)c(O)c(C(=O)NCCO)c1
O=C(NCCSc1c[nH]c2ccccc12)c1ccc(Cl)cc1 -8.65%
Cc1ccc(N2CC(NC(=O)CCCc3ccccc3)CC2=O)cc1 (configuration not stated) -11.6%
COc1ccc(Cn2c(SCc3ccc(C(=O)NCc4ccc(C)cc4)cc3)nc3cccnc32)cc1 -35.6%
O=C(NCCc1ccccc1)c1ccc2c(c1)N(Cc1ccc(Cl)cc1)C(=O)c1ccccc1S2(=O)=O 10.3%
CCN(c1ccccc1C)S(=O)(=O)c1nnc(NC(=O)c2ccc(OC)c(OC)c2)s1 -41.3%
Cc1ccc(C2=Nc3ccccc3N=C(c3ccc(F)cc3)C2)c(O)c1 -8.46%
CCc1nc(SC)ncc1C(=O)NCc1cccc(Br)c1 -14.4%
Cc1ccc(Cl)cc1N1CCN(c2nc3ccc(C(=O)c4ccccc4)cc3n3cnnc23)CC1 -11.7%
O=C(Cn1nc(Cc2cccnc2)c2ccccc2c1=O)N1CCN(c2ccccc2F)CC1 -14.9%
COc1ccc(CNC(=O)c2ccc(CN3C(=O)C(C)=C(c4ccc(C)cc4)S3(=O)=O)cc2)cc1 -24%
CCC1CCCCN1CCCNC(=O)c1ccc2c(c1)c(C)c(C)n2CC (configuration not stated) -17.8%
Cc1ccc(C)c(OCC(=O)Nc2sc3c(c2C#N)CCCC3)c1C -6.79% [at 11.5 µM, percent change from vehicle, -100% = no light]
CCOC(=O)c1c(Nc2ccc(C)c(C)c2)nnc(-c2ccccc2)c1-c1ccccc1 -31.7%
CCOc1ccc(NC(=O)NCCN2CCN(c3cc(Cl)ccc3C)CC2)cc1 -38.2%
O=C(NCCc1ccccc1)c1c[nH]c2ccc(S(=O)(=O)Nc3ccc(F)cc3F)cc2c1=O -20.8%
COc1ccc(CNC(=O)CN2N=C(c3ccc(Cl)cc3)CCC2=O)cc1 -10.8%
CCc1ccc(C(=O)c2cn(CC(=O)NCCc3ccccc3)c3nc(C)ccc3c2=O)cc1 -9.62%
COc1cccc(NC(=O)C2CCCN(c3ncnc4onc(-c5ccc(F)cc5)c34)C2)c1 (configuration not stated) -5.06%
COc1ccc(-c2onc(C)c2C)cc1S(=O)(=O)NCc1cccs1 -19.6%
CCOC(=O)c1noc2ncn(CC(=O)Nc3ccc(F)cc3Cl)c(=O)c12 -2.9%
CCOc1ccc(C(=O)Nc2ccc3c(c2)CCCN3S(=O)(=O)c2ccc(C)cc2)cc1 -1.05%
CC1CCCCN1Cc1c(O)ccc2c(=O)c(-c3ccc(Cl)cc3)c(C(F)(F)F)oc12 (configuration not stated) -15.4%
CC1=C(C(=O)OCc2ccc(C)cc2)C(c2ccccc2C(F)(F)F)CC(=O)N1 (configuration not stated) -32.1%
Cc1ccc(OCCSc2nc3ccccc3n2CC(=O)N2CCOCC2)cc1 -15.3%
C#C[C@]1(O)CC[C@H]2[C@@H]3CCC4=CC(=O)CC[C@@H]4[C@H]3CC[C@@]21C -7.22%
CCOC(=O)c1sc2ncn(CC(=O)Nc3ccc(F)cc3F)c(=O)c2c1C -2.34%
COC(=O)c1c(NC(=O)c2ccc(Cl)c(Cl)c2)sc2c1CCCC2 11.7%
CCOc1ccc(NC(=O)CSc2nnc3scc(-c4ccccc4)n23)cc1 -11.4%
Cc1ccc(-n2ncc(C(=O)Nc3ccc4c(c3)OCCO4)c2C2CCN(C(=O)OC(C)(C)C)CC2)cc1C -8.3%
CC1=C(C(=O)NCc2cccc(F)c2)C2(CCCCCC2)OC1=O -13.2%
COc1ccc(CNC(=O)c2cc(-c3ccc(Br)s3)nc3ccccc23)c(OC)c1 -16%
COc1ccccc1N1CCN(C(=O)Cn2ncc3c2-c2cc(C)ccc2OC3)CC1 -36.6%
COc1ccc(Nc2nc3ccc(C)cc3nc2-n2nc(C)cc2C)cc1Cl -3.61%
COCCN1CCc2nc(SCC(=O)Nc3ccc(C)c(Cl)c3)[nH]c(=O)c2C1 17.7%
COc1ccccc1NC(=O)CC1Sc2ccc(C(F)(F)F)cc2NC1=O (configuration not stated) -16.8%
CCOc1ccccc1CNC(=O)Cn1c(=O)c2cccn2c2ccc(F)cc21 0.853%
COc1ccc(CCNc2ncnc3c2c(-c2ccccc2)cn3-c2ccc(Cl)cc2)cc1OC -41.2%
CCOC(=O)CSc1nc2ccc(NC(=O)c3ccc(Cl)cc3)cc2s1 20.5%
Cc1cc2c(cc1C1(c3ccc(C(=O)O)cn3)CC1)C(C)(C)CCC2(C)C 5.71%
COc1cc(CN(C(=O)c2ccc(OC(C)C)cc2)c2ccccn2)cc(OC)c1OC -54.1%
COc1cccc(-c2nc(CS(=O)(=O)CC(=O)Nc3cccc(C(C)=O)c3)c(C)o2)c1 -33.8%
COC(=O)c1ccc(NC(=O)C2CCN(c3ncnc4c3nc3n4CCCCC3)CC2)cc1 -8.63%
Cc1cc(C)cc(NC(=O)CSc2c(C(C)C)cnc3c2c(=O)n(C)c(=O)n3C)c1 -13.1%
Cc1cc(Nc2nc3ccccc3c3nnc(C)n23)ccc1Br 4.96%
Cc1cc(C)cc(Nc2cc(C(=O)NC3CCCCC3)c3ccccc3n2)c1 -13.2%
COc1ccc(C)cc1NC(=O)c1cc(S(=O)(=O)N2CCC(C)CC2)ccc1F -7.72%
CCOC(=O)c1ccccc1NC(=O)CSc1nnc(CC)n2c1cc1occc12 -20.4%
CCCCc1ccc(C(=O)Nc2ccc3nc(N4CCN(CC)CC4)cc(C)c3c2)cc1 -15.6%
O=C(O)CNC(=O)c1ccccc1 -3.67%
Fc1ccc(-c2cc3ncc4c(n3n2)-c2cc(Cl)ccc2OC4)cc1 -4.2%
Nc1cc(C(F)(F)F)ccc1S -7.38%
Cc1oc(-c2ccccc2F)nc1Cn1c(SCc2cccc(C(F)(F)F)c2)nc2ccncc21 -27.1%
CCc1ccccc1NC(=O)c1cc(-c2ccc(Cl)s2)nc2ccccc12 -20.4%
O=C1CC[C@@H](C(=O)O)N1 -9.85%
O=C(Nc1ccccc1F)c1cnc(N2CCCCC2)c2ccccc12 -30.5%
CCOc1ccccc1NC(=O)Cn1c(=O)n(Cc2ccc(OC)cc2)c(=O)c2oc3ccccc3c21 -1.21%
COc1ccc(OC)c(CNC(=O)CCCn2c(=O)c3cccn3c3cccnc32)c1 5.96%
COc1ccccc1-c1nnc(C2CCN(C(=O)c3ccccc3C)CC2)o1 -13.4%
COc1ccc(N(CC(=O)Nc2cc(OC)cc(OC)c2)S(=O)(=O)c2c(C)noc2C)cc1 -37.5%
